Here are results for 86 compounds from ChEMBL document CHEMBL4888484, “Replenishing the malaria drug discovery pipeline: Screening and hit evaluation of the MMV Hit Generation Library 1 (HGL1) against asexual blood stage Plasmodium falciparum ,using a nano luciferase reporter read-out” (2022).

Among all 150,000 compounds or so, about 540 (0.36%) showed an effect of 50% or more. Some of the results follow.

This test deals with Plasmodium falciparum. Briefly: Primary screen in NF54 nanoGlo assay, in single point, at 2uM, 72h; a lower Z score goes with more inhibition. The settings on record: timepoint 72 hour. The test is classed as functional, Erythrocyte.
Turning to `CCNC(=O)N1CC(C(=O)NCc2ccccc2F)CC(c2ccc(F)c(C)c2)C1` (configuration not stated), the % Inhibition (in general, the drop in the measured response relative to a control, in per cent) is reported as -7% and the Z score was determined as 0.96.
Turning to `CC(C)(C)OC(=O)N1CC(NC(=O)C2CC2c2ccccc2C(F)(F)F)C1` (configuration not stated), the “% Inhibition” value is given as 39% and the Z score was -5.02.
Take `CC(F)(F)c1ccc(C(=O)N[C@@H]2CCCC[C@H]2S(C)(=O)=O)cn1`: the “% Inhibition” value is recorded as -4% and the Z score came out at 0.51.
For `CCCNC(=O)C1CCN(c2nnc(-c3ccc(OC)cc3)o2)CC1`, the “% Inhibition” value is on record as -11% and the Z score amounted to 1.64.
In the case of `CCOC1CC(N(C)C(=O)c2cn3cccnc3n2)C12CCCC2` (configuration not stated), the “% Inhibition” value is reported as -11% and the Z score came to 1.53.
As for `CC(C)(C)C(=O)N1CCC(N2CCc3cc(Br)cc(F)c3C2)CC1`, the “% Inhibition” value is recorded as -12% and the Z score amounted to 1.44.
Regarding `O=C(NC1CCCCC1)N1CCC[C@H](c2nnnn2-c2ccccc2)C1`, the “% Inhibition” value is recorded as -7% and the Z score was found to be 1.07.
Turning to `Cc1ccccc1-c1onc(C)c1C(=O)NCCC1(C)OCCO1`, the “% Inhibition” value is given as -8% and the Z score is 1.37.
Take `CCOc1ccccc1-c1nc(Cn2c(=O)c3cnc(-c4ccncc4)nc3n(C)c2=O)c(C)o1`: the “% Inhibition” value is 5% and the Z score was -0.82.
For the compound `CCS(=O)(=O)c1ccc(N2CCN(Cc3n[nH]c(C)n3)CC2)cc1`, the “% Inhibition” value is -9% and the Z score worked out at 1.7.
The like results for `CCCc1nc(C)cc(NCc2n[nH]c(=O)[nH]2)n1` were, in that order, -13% and 1.65.
With `COc1ncc(CN2CCc3[nH]nc(C)c3C2)cn1`, the “% Inhibition” value was -1% and the Z score amounted to 0.14.
Turning to `COc1ccccc1CNC(=O)c1coc(COc2cccc(F)c2F)n1`, the “% Inhibition” value stood at 1% and the Z score is on record as -0.13.
For the compound `Cc1nsc(-c2ccccc2N(C)C)n1`, the “% Inhibition” value is -11% and the Z score is 1.13.
Taken in the same sequence, the figures for `CNC(=O)[C@@H]1CN(C(=O)c2cc(-c3ccccc3)n(C)c2C)C[C@H]1CO` were -1% and 0.17.
Take `Cc1ccc2c(c1)N(C(=O)Cn1cccc1-c1nc(-c3ccc(Br)cc3)no1)CCO2`: the “% Inhibition” value came out at 0% and the Z score is recorded as 0.
The like results for `O=C(NCc1cccnc1-c1cccnc1)c1cccnc1` were, in that order, -8% and 1.22.
Turning to `Cc1nn(CCNS(=O)(=O)c2cccs2)c(C)c1-c1cccs1`, the “% Inhibition” value was 19% and the Z score is on record as -2.39.
For `Cn1cncc1COc1ccc2c(c1)CCCNC2=O`, the “% Inhibition” value was -2% and the Z score was 0.24.
Turning to `CCc1nc(NC(=O)c2sc(COc3ccc(Cl)c(C)c3)nc2C)sc1C(=O)OC`, the “% Inhibition” value was -11% and the Z score is on record as 1.61.
Regarding `COCC1(O)CN(C(=O)[C@H](C)OC2CCCCCC2)C1`, the “% Inhibition” value is -13% and the Z score is listed as 1.39.
As for `CNC(=NC[C@H](C)N1CCc2ccccc21)NC`, the “% Inhibition” value is given as -12% and the Z score turned out to be 1.74.
The like results for `CCOc1ccc(C(=O)NCCN2C(=O)COC2=O)cc1` were, in that order, 11% and -1.46.
The like results for `Cc1ccc(-c2cccc(-c3ccn(Cc4ccc(C#N)cc4)n3)c2)nn1` were, in that order, -5% and 0.64.
Regarding `C[C@@H](CCOc1cnn(C)c1)OCc1ccccc1`, the “% Inhibition” value was -15% and the Z score was determined as 1.64.
On to `CN(C[C@H](O)C(F)(F)F)C(=O)CC1CN(C(=O)OC(C)(C)C)C1`, for which the “% Inhibition” value is on record as -10% and the Z score is recorded as 0.89.
The like results for `COc1ccc(C(=O)Nc2ccccc2NC(=O)c2ccco2)c(OC)c1` were, in that order, 7% and -1.27.
As to `CCCN1C(=O)[C@H]2C(C(=O)Nc3ccc(OC)cc3)[C@H]3C=C[C@@]2(O3)C1C(=O)NC1CCCCC1` (some centres not stated), the “% Inhibition” value is recorded as 6% and the Z score was -1.
In the case of `CCCNC(=O)c1sc(-n2nc(C)c(Cc3ccccc3Cl)c2C)nc1C`, the “% Inhibition” value is 6% and the Z score is given as -1.12.
`COc1ccc(CCNC(=O)c2cc(-c3cc(Cl)cc(Cl)c3)oc2C)cc1`: the “% Inhibition” value worked out at 25% and the Z score is -3.4.
For the compound `CCN(CCC#N)S(=O)(=O)N1CCC[C@H](C)C1`, the “% Inhibition” value came to 34% and the Z score is reported as -3.08.
The like results for `Cc1ccc(S(=O)(=O)Nc2ccc3c(c2)-c2ccccc2S(=O)(=O)N3)cc1` were, in that order, 24% and -2.72.
The like results for `COC(=O)c1cc(NC(=O)NCC(F)(F)F)c(C)cc1C` were, in that order, -3% and 0.6.
In the case of `O=C(CCc1c[nH]c2ccccc12)N1CCC[C@H]1c1ccc[nH]1`, the “% Inhibition” value is listed as 8% and the Z score was -0.83.
Taken in the same sequence, the figures for `O=C(NS(=O)(=O)c1ccsc1)c1cnn2c1CCC2` were 3% and -0.4.
As to `Cc1nc(C)c2c(n1)O[C@@H](CN1C(=O)CC3(CCCC3)CC1=O)C2`, the “% Inhibition” value is -4% and the Z score is listed as 0.61.
For the compound `CC[C@H](C)NC(=O)Cn1ccc2c(C)nn(C)c2c1=O`, the “% Inhibition” value was -21% and the Z score came to 2.06.
Taken in the same sequence, the figures for `CCCNC(=O)CN1C(=O)CN(C(=O)NCc2ccc(F)cc2)c2ccccc21` were -18% and 2.23.
In the case of `CCOc1ccc(Br)cc1NC(=O)NCCOC`, the “% Inhibition” value is reported as 0% and the Z score was 0.06.
Taken in the same sequence, the figures for `c1ccc2cc(Cn3ccnc3)ccc2c1` were 1% and -0.15.
For the compound `C[C@](O)(CNC(=O)C(=O)Nc1ccc(F)c(F)c1)c1ccc2c(c1)OCO2`, the “% Inhibition” value was -3% and the Z score amounted to 0.57.
As to `CN(CCc1cn[nH]c1)Cc1cc2n(n1)CCN(Cc1cccc(O)c1)C2`, the “% Inhibition” value is -11% and the Z score is reported as 1.99.
The like results for `CC(C)(COc1ncccc1C(F)(F)F)NC(=O)c1cc2n(n1)CCO2` were, in that order, -9% and 1.48.
Regarding `O=C(NCc1ccoc1)c1cccnc1O`, the “% Inhibition” value is reported as -7% and the Z score worked out at 0.62.
For the compound `COc1cc(NC(=O)N(C)CC(F)(F)F)cc(OC)c1C(C)C`, the “% Inhibition” value is listed as -2% and the Z score worked out at 0.3.
The like results for `CN(C)C(=O)c1cc(Br)ccc1O` were, in that order, -7% and 1.36.
Taken in the same sequence, the figures for `CCc1nccc(-c2c(-c3ccccc3)ncn2[C@H](C(=O)OC)C2CC2)n1` were -7% and 1.13.
Regarding `C[C@@H](CC(=O)NC1(C(=O)O)CCC1)c1ccccc1`, the “% Inhibition” value worked out at 8% and the Z score is -0.76.
For the compound `C[C@H](Cc1cn(C)nn1)NS(=O)(=O)N1CCc2ccccc2C1`, the “% Inhibition” value is -3% and the Z score turned out to be 0.41.
Taken in the same sequence, the figures for `CC(C)(C)[C@H](NC(=O)c1ccc(O)nc1)C(F)(F)F` were -7% and 0.74.
For the compound `O=C(c1ccc2[nH]ccc2c1)N1CCC(Oc2cccc3cccnc23)CC1`, the “% Inhibition” value is on record as -15% and the Z score turned out to be 2.92.
In the case of `CC[C@@H](C(=O)N1CCc2[nH]c(=O)c(C#N)cc2C1)c1ccccc1`, the “% Inhibition” value is on record as -7% and the Z score is reported as 1.12.
Taken in the same sequence, the figures for `O=C(Nc1[nH]ncc1-c1ccc2c(c1)OCO2)c1ccncc1Cl` were 2% and -0.16.
Take `CC(C)N1C[C@]2(C)CN(C(=O)c3c[nH]c4ccccc34)C[C@](C)(C1)C2O` (some centres not stated): the “% Inhibition” value is -3% and the Z score is 0.56.
Consider `NC(=O)Cn1cnc(-c2ccccc2)c1-c1cc2c(cc1Cl)OCO2`, for which the “% Inhibition” value amounted to 3% and the Z score is on record as -0.49.
On to `NC(=O)[C@H]1CCCN1CCC(=O)NCc1cccs1`, for which the “% Inhibition” value is reported as -12% and the Z score worked out at 1.65.
The like results for `COc1ccc(-n2cnnc2CN2CCN(c3ccc(F)cc3)CC2)cc1` were, in that order, -16% and 1.5.
Take `CCCCCC(=O)Nc1cccc(C)c1C`: the “% Inhibition” value was -7% and the Z score is reported as 0.93.
Taken in the same sequence, the figures for `c1cc2c(cc1NC1CCCCCCC1)OCO2` were -7% and 0.98.
Taken in the same sequence, the figures for `O=C(N[C@H]1CCCOCC1)c1ccc(F)c(Cl)c1` were 3% and -0.54.
For the compound `CC[C@H](NCC(=O)NC1CCCCC1)C(=O)OC`, the “% Inhibition” value is given as -1% and the Z score is reported as 0.18.
On to `Cc1ccc(S(=O)(=O)Nc2cnn(-c3ccccc3)n2)c(Br)c1`, for which the “% Inhibition” value is -15% and the Z score is 1.58.
For `c1ccc(-c2nc(Oc3cccnc3)c3ccccc3n2)cc1`, the “% Inhibition” value came to 4% and the Z score was -0.87.
Turning to `CC(C)(C)N(CC(N)=O)Cc1c(F)cncc1F`, the “% Inhibition” value is given as -3% and the Z score amounted to 0.48.
On to `CCCOc1ccc(CN(CCCN(C)C)C(=O)C2CCOCC2)cc1OC`, for which the “% Inhibition” value is recorded as -4% and the Z score was 0.55.
On to `C#CCCC1(CCC(=O)N2CC[C@@H]2COC)N=N1`, for which the “% Inhibition” value is 6% and the Z score was -0.88.
Regarding `Cc1c(C(=O)N2CCN(C(=O)OC(C)(C)C)C[C@H]2C)cnn1C`, the “% Inhibition” value is 6% and the Z score was -1.09.
Taken in the same sequence, the figures for `COc1cccc(OCc2nc3c(c(=O)[nH]2)CCNC3)c1` were -10% and 1.96.
Consider `COC(=O)[C@H]1CCn2c(COc3ccccc3OC)nnc2C1`, for which the “% Inhibition” value is listed as -5% and the Z score came to 0.7.
For `CC[C@H](C)NC(=O)C(=O)Nc1ccccc1C`, the “% Inhibition” value was -20% and the Z score was 2.63.
For the compound `CCOC(=O)NCCC(=O)NCCC[C@H]1CCCCO1`, the “% Inhibition” value was -4% and the Z score came out at 0.49.
With `CC(C)(C)CC(=O)N1CCC(N[C@H]2CCN(c3ccc(Cl)c(Cl)c3)C2=O)CC1`, the “% Inhibition” value came out at 0% and the Z score was -0.05.
With `CN1CCC2(CC1)CCN(C(=O)Cc1ccccc1OC(F)F)C2`, the “% Inhibition” value is listed as -17% and the Z score worked out at 3.27.
As for `CCN(c1ccccc1)S(=O)(=O)c1cc(NC(=O)c2cccc(S(=O)(=O)N(C)c3ccc(C)cc3)c2)ccc1Cl`, the “% Inhibition” value is given as -6% and the Z score is 0.95.
Turning to `COc1ccc(/C=C/c2nc(-c3ccc4c(c3)nc(C)c(=O)n4C)no2)cc1`, the “% Inhibition” value stood at 3% and the Z score was -0.41.
On to `C[C@@H](CN1CCOCC1)C(=O)N(C)Cc1ccon1`, for which the “% Inhibition” value is reported as -10% and the Z score was 1.86.
As to `CCn1cnnc1CN(C)Cc1cc(C#N)n(C)c1C`, the “% Inhibition” value is recorded as -20% and the Z score is listed as 2.53.
Turning to `CCCCN(CC)S(=O)(=O)c1c(C)nc(O)nc1O`, the “% Inhibition” value is -6% and the Z score stood at 0.68.
On to `O=C1N(CCCc2ccccc2)CCC[C@@]1(O)CNC1CCC1`, for which the “% Inhibition” value is listed as -15% and the Z score stood at 1.98.
For `CCC(=O)Nc1nc2ccc(NC(=O)Nc3ccccc3Cl)cc2s1`, the “% Inhibition” value stood at 2% and the Z score is on record as -0.38.
Turning to `CC(=O)N1CCCN(c2cc(-c3ccccc3)nc3ncnn23)CC1`, the “% Inhibition” value is on record as -37% and the Z score is 4.4.
Consider `Cn1c(C2CCC2)nc2cc(C(=O)NC(C)(C)C)cc(NC(=O)[C@@H]3CCCO3)c21`, for which the “% Inhibition” value is on record as -10% and the Z score was found to be 1.91.
Consider `CC(C)c1nnc(Cn2cc(C#N)cn2)n1C`, for which the “% Inhibition” value was -8% and the Z score was found to be 0.94.
Taken in the same sequence, the figures for `O=S(=O)(c1c(F)cccc1F)N1CCCCCC1` were -18% and 2.31.
As for `CC(C)c1cccc2sc(N(C[C@H]3CCCO3)C(=O)Cc3ccc4c(c3)OCO4)nc12`, the “% Inhibition” value is given as -7% and the Z score is recorded as 0.83.
For the compound `CCCn1cc(-c2ccnc(NCCC3(O)CCN(C)CC3)n2)c(C)n1`, the “% Inhibition” value is -10% and the Z score was 1.96.
